The source of these data is paper PMC4336329 (PLoS ONE, 2015).

About 14,000 (4.5%) of roughly 310,000 compounds showed an effect of 50% or more. Effects have a minus sign here. The list shows a part of the results.
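Also: peak tail current of the secondary pulse compared with the same well before compound.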

Chain of human ether-à-go-go-related gene (hERG) potassium channel (Q12809 whole entry, looked up): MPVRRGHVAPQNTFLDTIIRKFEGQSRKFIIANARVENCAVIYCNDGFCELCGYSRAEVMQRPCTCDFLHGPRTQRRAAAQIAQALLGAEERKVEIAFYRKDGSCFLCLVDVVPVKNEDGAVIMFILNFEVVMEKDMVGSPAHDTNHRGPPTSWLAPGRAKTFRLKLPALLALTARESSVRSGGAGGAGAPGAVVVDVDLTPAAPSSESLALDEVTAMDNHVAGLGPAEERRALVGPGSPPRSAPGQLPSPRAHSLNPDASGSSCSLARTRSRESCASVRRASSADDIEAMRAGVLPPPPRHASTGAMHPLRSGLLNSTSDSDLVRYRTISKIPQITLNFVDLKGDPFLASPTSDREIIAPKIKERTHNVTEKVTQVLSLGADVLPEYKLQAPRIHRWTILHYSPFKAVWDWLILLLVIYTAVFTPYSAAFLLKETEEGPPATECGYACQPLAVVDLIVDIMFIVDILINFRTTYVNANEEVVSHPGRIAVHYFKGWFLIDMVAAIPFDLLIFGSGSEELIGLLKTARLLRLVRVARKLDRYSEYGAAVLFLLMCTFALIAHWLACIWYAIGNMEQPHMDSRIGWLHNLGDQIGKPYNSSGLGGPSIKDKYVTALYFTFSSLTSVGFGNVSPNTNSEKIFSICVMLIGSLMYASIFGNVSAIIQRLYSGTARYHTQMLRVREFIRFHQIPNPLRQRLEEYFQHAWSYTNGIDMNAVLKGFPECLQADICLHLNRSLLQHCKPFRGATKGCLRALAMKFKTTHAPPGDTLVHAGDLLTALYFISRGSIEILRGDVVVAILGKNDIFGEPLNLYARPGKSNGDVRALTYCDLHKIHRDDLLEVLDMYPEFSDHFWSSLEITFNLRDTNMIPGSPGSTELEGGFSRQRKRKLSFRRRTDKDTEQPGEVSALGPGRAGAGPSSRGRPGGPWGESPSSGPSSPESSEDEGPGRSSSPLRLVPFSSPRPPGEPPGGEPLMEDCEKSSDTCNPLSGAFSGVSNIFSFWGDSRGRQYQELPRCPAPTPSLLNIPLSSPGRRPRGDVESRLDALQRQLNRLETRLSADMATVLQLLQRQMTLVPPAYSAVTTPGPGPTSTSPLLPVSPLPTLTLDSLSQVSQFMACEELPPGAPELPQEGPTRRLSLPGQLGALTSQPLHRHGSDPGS

The assay addresses human ether-à-go-go-related gene (hERG) potassium channel (human, UniProt Q12809). Kind of assay: primary screen, population patch clamp on CHO cells stably expressing hERG.
Regarding `COc1ccc(NC(=O)CSc2nccn2C)cc1S(N)(=O)=O`, the “hERG current change (%, negative = inhibition) at 10uM” value turned out to be 10.3%.

As to `C=CCn1c(C)cc(C(=O)COc2nncc3ccccc23)c1C`, the “hERG current change (%, negative = inhibition) at 10uM” value turned out to be 9.33%.

As for `Cc1ccc(OCC(O)CNC2CCCC2)c(C)c1.Cl` (stereo not drawn), the “hERG current change (%, negative = inhibition) at 10uM” value is listed as 7.48%. Then `C1=CC(Cc2cncs2)c2ccccc21` (stereo not drawn), with 0.216%; and `O=C(CSc1nnc(-c2ccccc2)n1Cc1ccco1)Nc1ccc(S(=O)(=O)N2CCCC2)cc1`, with -35.3%; and `CCN(CC)c1nc(-c2cccc(OC)c2O)nc2ccccc12`, with 4.29%. With `CCCSc1ccc([C@@H]2[C@H]3C(=O)N(CC)C(=O)[C@H]3[C@]3(C(=O)OC)CCCCN23)cc1OC.O=C(O)C(F)(F)F` the figure was 1.84%.

Turning to `CCN(CC)C(=O)c1ccccc1NC(=O)CN1C(=O)c2ccccc2S1(=O)=O`, the “hERG current change (%, negative = inhibition) at 10uM” value was determined as 8.92%. As to `CC(C)N1CCN(Cc2ccsc2)CC1CCO` (stereo not drawn), the “hERG current change (%, negative = inhibition) at 10uM” value was -4.25%.

For `CCOC(=O)c1c(NC(=O)COC)sc(C(C)=O)c1C`, the “hERG current change (%, negative = inhibition) at 10uM” value came out at 11.4%.

As for `CCCNC(=O)N(CCOC)CC1CCCN(C2Cc3ccccc3C2)C1` (stereo not drawn), the “hERG current change (%, negative = inhibition) at 10uM” value is -47.8%. As for `Clc1ccc(CN2CCCCCCC2)cc1Cl`, the “hERG current change (%, negative = inhibition) at 10uM” value worked out at 3.83%. Then `COCC(C)OC(=O)c1c(N)n(Cc2ccco2)c2nc3ccccc3nc12` (stereo not drawn), with -55.7%; and `Cc1cc(C)n2nc(SC3CCCCN(C(=O)c4ccc(F)cc4)C3=O)nc2n1` (stereo not drawn), with -21%; and `COc1ccc(/C=C/CN2CCC(n3nccc3NC(=O)C3CC3)CC2)cc1`, with -72.7%. Then `CCC(=O)Nc1ccc(C(=O)Nc2cc(C)on2)cc1`, with -9.54%; and `O=C(NCc1nc2ccccc2[nH]1)C1=C[C@H](c2ccc(Br)cc2)C[C@H](OCc2ccc(CO)cc2)O1`, with 3.89%. On to `O=C(c1ccc(F)cc1)N1CCN(c2cnn(-c3ccccc3)c(=O)c2Cl)CC1`, for which the “hERG current change (%, negative = inhibition) at 10uM” value is given as -48.6%. Then `O=C(CN1C(=O)c2cccc3cccc1c23)Nc1ccccc1`, with 20.2%; and `COc1ccc(N(CC(=O)Nc2cccc(N(C)S(C)(=O)=O)c2)S(=O)(=O)c2ccc(F)cc2)cc1`, with -10.5%; and `COc1ccc(-c2cc(Nc3ccccc3NC(=O)C(F)(F)F)n(CCC#N)n2)cc1`, with -14.7%. Take `Cc1nnc(SCC(=O)NC(C)(C)C)n1CCc1ccccc1`: the “hERG current change (%, negative = inhibition) at 10uM” value was -9.81%. As to `Clc1ccc(Cn2cccn2)cn1`, the “hERG current change (%, negative = inhibition) at 10uM” value was 24.8%. `Cc1noc(C)c1COC(=O)CCCNC(=O)c1ccc(Cl)cc1`: the “hERG current change (%, negative = inhibition) at 10uM” value is reported as -8.57%. With `CCN(CC(=O)Nc1c(F)cccc1F)C(=O)c1ccc2ccccc2n1` the figure was -19.6%; with `COc1ccccc1NC(=O)Cn1c(C)cc(=O)c2cccc(OC)c21`, -33.3%. With `O=C(c1ccc(Cl)c([N+](=O)[O-])c1)N1CCCc2ccccc21` the figure was -10.9%.

Regarding `CN(CC(=O)Nc1cccc(F)c1)C(=O)c1ccc(OCC2CCCO2)cc1` (stereo not drawn), the “hERG current change (%, negative = inhibition) at 10uM” value is on record as 4.44%.

As for `COc1ccc(C(CNC(=O)c2cccc(NS(=O)(=O)c3ccc(C)c(F)c3)c2)N2CCOCC2)cc1` (stereo not drawn), the “hERG current change (%, negative = inhibition) at 10uM” value is -9.43%. Then `CN(C)C(CNC(=O)CCCOc1ccccc1)c1ccco1` (stereo not drawn), with -6.68%; and `Cc1nn(C)c(C(=O)NNC(=S)NC2CCCCC2)c1Cl`, with 10.4%.

For `CC1(C)CSC(=NCCc2ccccc2)N1C(=O)c1ccc(C#N)cc1`, the “hERG current change (%, negative = inhibition) at 10uM” value was -18.8%. With `COc1ccc(-c2csc3ncnc(N4CCN(c5cccc(OC)c5)CC4)c23)cc1` the figure was 5.39%. For the molecule `COC(=O)[C@@H](NC(=O)/C=C/c1ccc(OC)cc1)C(C)C`, the “hERG current change (%, negative = inhibition) at 10uM” value turned out to be 10.3%.

Regarding `CCOc1ccc2[nH]c(O)c(NC(C)=O)c2c1`, the “hERG current change (%, negative = inhibition) at 10uM” value is -5.02%. With `COc1ccc(S(=O)(=O)N2CCCC2C(=O)NCC(=O)Nc2cccc(Cl)c2C)cc1` (stereo not drawn) the figure was -22.6%. With `CCCN1C(=O)C(Cc2nc3ccccc3c(=O)n2-c2ccccc2)c2ccccc21` (stereo not drawn) the figure was -9.57%; with `C=CCn1c(COc2ccc(Cl)cc2)nnc1SCC(=O)Nc1ccc(S(N)(=O)=O)cc1`, -9.02%; with `C=CCON/C(CCC)=C1\C(=O)CC(C)(C)CC1=NC`, 23.8%. Then `O=C(N/C(=C\c1cccnc1)C(=O)N1CCOCC1)c1ccco1`, with 1.86%; and `COc1cccc(NC(=O)c2cc(-c3cccnc3)nc3c(Cl)cccc23)c1`, with 4.76%. As for `CN(C)C(CNC(=O)c1ccc(NC(=O)c2cccs2)cc1)c1ccccc1` (stereo not drawn), the “hERG current change (%, negative = inhibition) at 10uM” value came to 8.18%. On to `Cl.Fc1ccc(Nc2nc(N3CCOCC3)nc(N3CCOCC3)n2)cc1`, for which the “hERG current change (%, negative = inhibition) at 10uM” value was found to be 4.26%. Then `O=C(CSc1nc2ccccc2o1)N/N=C/c1ccccc1C(=O)O`, with 22.1%; and `Cc1ccc(C)c(C(=O)CC2(O)C(=O)Nc3ccccc32)c1` (stereo not drawn), with 1.57%.

Turning to `Cc1ccc(S(=O)(=O)N(C)C)cc1NC(=O)COC(=O)C1(c2ccccc2)CC1`, the “hERG current change (%, negative = inhibition) at 10uM” value is -24.7%. Then `O=[N+]([O-])c1cccc(S(=O)(=O)N2CCN(S(=O)(=O)N3CCCCCC3)CC2)c1`, with 20.3%; and `O=C(Nc1nc(-c2ccccc2)cs1)C1CCCN(S(=O)(=O)c2ccccc2)C1` (stereo not drawn), with -10.4%; and `O=C(Nc1ccc(N2CCN(Cc3ccccc3Cl)CC2)cc1)c1cccnc1`, with 5.42%.

Turning to `CCOc1cc(C(=O)NCc2ccccc2)ccc1OCC(=O)N1CCCCC1`, the “hERG current change (%, negative = inhibition) at 10uM” value is reported as -20.3%. Then `CCOC(=O)C1=C(COC(=O)CNC(=O)c2ccc(C(C)(C)C)cc2)NC(=O)NC1C` (stereo not drawn), with -10.4%; and `COc1ccc(C2C(C(C)=O)=C(C)N=c3s/c(=C\c4ccc5c(c4)OCO5)c(=O)n32)c(OC)c1` (stereo not drawn), with 17.2%. With `CCN(CC)CCCCCOc1ccccc1OC` the figure was 7.04%.

As for `COc1ccc(CCNC(=O)c2noc(C(C)C)c2[N+](=O)[O-])cc1OC`, the “hERG current change (%, negative = inhibition) at 10uM” value is 12.2%. On to `CC(C)(C)c1ccc(-n2ncc3c2CCCC3NC(=O)CCN2CCCO2)cc1` (stereo not drawn), for which the “hERG current change (%, negative = inhibition) at 10uM” value is -7.02%. With `O=C(Nc1ccc(F)cc1)C1CCCN(S(=O)(=O)c2ccc3[nH]c(=O)ccc3c2)C1` (stereo not drawn) the figure was -11.1%. Then `Cc1ccc(CCNS(=O)(=O)c2ccc(C)cc2)cc1`, with 5.05%; and `Cc1cccc(-n2c(=O)cc(N3CCN(c4ccc(F)cc4)CC3)[nH]c2=O)c1`, with -17.5%. With `OC(c1ccccc1)(c1ccccc1)c1ccncc1` the figure was 18.8%.

As for `O=C(O)CCCCCn1c(SCc2cc(=O)n3ccccc3n2)nc2ccsc2c1=O`, the “hERG current change (%, negative = inhibition) at 10uM” value was -9.44%. Then `O=C(NCCS(=O)(=O)NCc1ccccc1)c1ccccc1`, with 4.82%.

As to `O=C(Cn1c(=S)[nH]c2ccccc2c1=O)NCCc1ccccc1`, the “hERG current change (%, negative = inhibition) at 10uM” value is 16%.

Regarding `CC(=O)c1sc(=S)n(-c2ccccc2)c1C`, the “hERG current change (%, negative = inhibition) at 10uM” value stood at 9.77%.

For the molecule `CC1=C(C(=O)OCC2CCCO2)C(c2ccc(Cl)cc2)NC(=O)N1` (stereo not drawn), the “hERG current change (%, negative = inhibition) at 10uM” value is -8.58%. As to `Cc1csc(=O)n1CCC(=O)OCC(=O)Nc1ccc(F)c(F)c1F`, the “hERG current change (%, negative = inhibition) at 10uM” value is -0.344%. Then `CN(Cc1ccccc1)C(=O)Nc1ccc(Cl)cc1`, with 0.136%; and `COC(=O)c1ccc(NC(=O)CNC(=O)C2CCCCC2)c(C)c1`, with 1.8%. With `CCCN1CCN(C2CCCCC2NS(=O)(=O)c2ccc(Cl)cc2)CC1` (stereo not drawn) the figure was -63.4%; with `Cc1cc(C)c(OCCCCN2CCC(C)CC2)c(Br)c1`, -72.7%; with `Cc1ccc(C)n1-c1ccc(C(=O)/C=C/N(C)C)cc1`, -11.8%. With `Cc1ccc(Sc2c(C)nn(C(=O)C3CC3)c2C)cc1` the figure was 11.6%; with `COc1ccc(CCC(=O)N2CCN(S(=O)(=O)c3cccc(Cl)c3)CC2)cc1`, -34.8%; with `OCC[C@H]1C[C@H](O)[C@@H](O)[C@]2(Cc3ccccc3CCO2)O1`, 1.22%. On to `Cc1cc(NC(=O)CSc2sc3c(O)cc(=O)[nH]c3c2C#N)ccc1Br`, for which the “hERG current change (%, negative = inhibition) at 10uM” value is 3.12%. Then `CCC(=O)N1CCc2cc(S(=O)(=O)CCC(=O)Nc3ccc(OC)cc3)ccc21`, with 12.5%.

On to `NS(=O)(=O)c1ccc(NC(=O)CSc2cn[nH]n2)cc1`, for which the “hERG current change (%, negative = inhibition) at 10uM” value turned out to be 5.06%.

For `CCOC(=O)c1cnc2ccc(C(=O)OC)cc2c1Nc1cccc(C(=O)O)c1.Cl`, the “hERG current change (%, negative = inhibition) at 10uM” value is reported as 4.91%. Consider `O=C(OCCCOC(=O)c1ccccc1O)c1ccccc1O`, for which the “hERG current change (%, negative = inhibition) at 10uM” value is -1.3%. With `O=c1[nH]c2cccnc2n1Cc1ccccc1` the figure was 7.67%. With `Cc1cc(S(=O)(=O)Nc2ccc(C(=O)N3CCN(C(=O)c4ccco4)CC3)cc2)ccc1F` the figure was -64.4%. Then `COC(=O)C(NC(C)=O)(Nc1ccccn1)C(F)(F)F` (stereo not drawn), with 14%; and `O=C(CCC(=O)c1ccc(Oc2ccccc2)cc1)Nc1cccc(Cl)c1Cl`, with 8.33%.

Consider `O=C(N/N=C/c1ccc2nccnc2c1)c1ccncc1`, for which the “hERG current change (%, negative = inhibition) at 10uM” value came out at 6.4%. Then `O=c1c(-c2ccc(Cl)cc2)cnc2n1CCS2`, with 2.45%; and `CCN(CC)c1ccc(NS(=O)(=O)c2ccc(-c3ccc(=O)[nH]n3)o2)c(C)c1`, with 11%; and `CC1(C)S[C@@H]2[C@H](NC(=O)COc3ccccc3)C(=O)N2C1C(=O)OCc1ccccc1` (stereo partly drawn), with -48.1%.

Turning to `COCCn1c(SCC(=O)N2CCCCC2)nc2c(c1=O)SCC2`, the “hERG current change (%, negative = inhibition) at 10uM” value is -4.63%.
